{"source": "PubChem BioAssay AID651820", "about": "(National Center for Advancing Translational Sciences (NCATS), 2012)", "note": "Among all 340,000 compounds or so, about 12,000 (3.5%) were called active. The inconclusive results got no clear call from the source; some entries with a clear call stand among them for comparison. Calls follow the shape of the dose curve; as a rule, active = well fitted inhibition curve with a large enough effect; inconclusive = small, poorly fitted or top-dose-only effect, or another doubt; inactive = no such curve, though single readings can be large or run the other way. No potency is given beside an inconclusive call; the fits are too rough. % is scaled to controls: 0 for no effect and ±100 for the full control effect; potency is read from the fitted curve at half-maximal effect; tags tell the direction and shape of the fitted curve."}
{"assay": "qHTS Assay for Inhibitors of Hepatitis C Virus (HCV)", "conditions": "Huh7.5.1 HCVcc-Cre (HCVcc is cell-culture hepatitis C virus) infection, luciferase reporter, 44 h; activity change, negative = inhibition: at 41.8 µM (top of the series)", "summary_of_the_method": "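Luciferase read-out (15 sec integration) after a 15 min room-temperature substrate step quantifies HCVcc-Cre infection. Cells, 1,000 per well, had compound added 4 h post-plating, then virus at ~0.5 moi, and were cultured 44 h.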"}
{"smiles": "Cc1ccc(S(=O)(=O)N2C[C@@H]3[C@H]4CC[C@H](C4)[C@@H]3[C@@H](C)[C@H]2c2ccco2)cc1", "Potency": "inconclusive [inhibitor, partial curve]"}
{"smiles": "COc1ccc(N2CCN(C(=O)CCCCCn3c(=S)[nH]c4cc5c(cc4c3=O)OCO5)CC2)cc1", "activity change, negative = inhibition": "inactive: 1.7%"}
{"smiles": "CC(=O)N1CC(C)Sc2ccc(S(=O)(=O)NCCc3ccccc3)cc21", "note": "(stereo not drawn)", "Potency": "inconclusive [inhibitor, single point]"}
{"smiles": "O=C(Nc1ccccn1)C1CCN(S(=O)(=O)c2ccc3c(c2)OCCO3)CC1", "Potency": "inconclusive [inhibitor, single point]"}
{"smiles": "O=C(NCc1ccc(Cl)s1)c1cc(COc2c(F)cccc2F)on1", "activity change, negative = inhibition": "inactive: -1.53%"}
{"smiles": "Cc1n[nH]c(C)c1CCN", "activity change, negative = inhibition": "inactive: 22.3%"}
{"smiles": "COc1ccc(NC(=O)c2cccc(Cn3cc(Br)c([N+](=O)[O-])n3)c2)c(C)c1", "Potency": "active: 10 µM"}
{"smiles": "COc1ccc(CNc2cc(C)ccn2)cc1", "Potency": "inconclusive [inhibitor, single point]"}
{"smiles": "O=C(Cc1coc(-c2ccc(F)cc2)n1)Nc1ccccc1", "Potency": "inconclusive [inhibitor, single point]"}
{"smiles": "CCOc1ccc(NC(=O)CCCOc2cc(=O)n(C)c3ccccc23)cc1", "Potency": "inconclusive [inhibitor, partial curve]"}
{"smiles": "Cc1c(Cl)cccc1Nc1nc(N)nc(CSC(=S)N2CCOCC2)n1", "activity change, negative = inhibition": "inactive: -25.3%"}
{"smiles": "O=C(c1cnc2c(c1)COc1ccc(Cl)cc1-2)c1ccccc1O", "Potency": "inconclusive [inhibitor, single point]"}
{"smiles": "CCC(C)NC(=O)c1cn(CC)c2ccc(S(=O)(=O)N3CCCCCC3)cc2c1=O", "note": "(stereo not drawn)", "activity change, negative = inhibition": "inactive: -2.86%"}
{"smiles": "CCOc1cc(C)nc(N2CCC(C(=O)NC3CC3)CC2)n1", "activity change, negative = inhibition": "inactive: 13.3%"}
{"smiles": "CCOc1ccc(OCC)c(NC(=O)CCS(=O)(=O)c2ccc(Br)s2)c1", "Potency": "inconclusive [inhibitor, single point]"}
{"smiles": "N#CC12CCCCC1CC1CCCCC1(C#N)N2Cc1ccccn1", "note": "(stereo not drawn)", "activity change, negative = inhibition": "inactive: 27.5%"}
{"smiles": "Cc1cc(C)c(S(=O)(=O)N2CCN(S(=O)(=O)N3CCOCC3)CC2)c(C)c1", "Potency": "inconclusive [inhibitor, single point]"}
{"smiles": "O=C(N/N=C/c1ccco1)c1ccccc1OCc1ccccc1Cl", "Potency": "inconclusive [inhibitor, full curve, poor fit]"}
{"smiles": "CCc1ccc(-n2c(C)cc(/C=N/NC(=O)OC)c2C)cc1", "Potency": "inconclusive [inhibitor, single point]"}
{"smiles": "CCN(CC)C(=O)/C(=C/c1ccc2c(c1)OCO2)NC(=O)c1ccc(Br)cc1", "Potency": "inconclusive [inhibitor, partial curve]"}
{"smiles": "CCOC(=O)c1c(-c2ccccc2)csc1NC(=O)c1cc(S(=O)(=O)N2CCOCC2)ccc1C", "Potency": "inconclusive [inhibitor, partial curve]"}
{"smiles": "Cc1ccc2c(c1)N(Cc1ccccn1)C(=O)C(C)O2", "note": "(stereo not drawn)", "activity change, negative = inhibition": "inactive: 15.2%"}
{"smiles": "COc1ccccc1OCCNC(=O)C1CC(=O)N(Cc2ccc(C)cc2)C1", "note": "(stereo not drawn)", "activity change, negative = inhibition": "inactive: 5.5%"}
{"smiles": "CCCC(=O)Nc1nc(C)c(-c2csc(Nc3cc(OC)ccc3OC)n2)s1", "Potency": "inconclusive [inhibitor, full curve]"}
{"smiles": "CN1CCC(N(C)C(=O)/C=C/c2cn(-c3ccccc3)nc2-c2cccs2)CC1", "Potency": "active: 7.94 µM"}
{"smiles": "COc1cccc(CNCC(=O)Nc2ccc(N3CCOCC3)cc2)c1", "activity change, negative = inhibition": "inactive: -1.12%"}
{"smiles": "COc1ccc(CC(=O)Nc2cccc(SC)c2)cc1OC", "Potency": "active: 3.98 µM"}
{"smiles": "CC(C)c1ccccc1-n1c(SCc2cc(=O)oc3ccc4ccccc4c23)nnc1-c1cccnc1", "Potency": "inconclusive [inhibitor, single point]"}
{"smiles": "CC(=O)Nc1cccc(C(=O)OC2CCOC2=O)c1", "note": "(stereo not drawn)", "activity change, negative = inhibition": "inactive: 10.9%"}
{"smiles": "C=CCN(c1ccccc1OC)S(=O)(=O)c1cccc(C(=O)NCC(c2ccc(OC)cc2)N2CCCC2)c1", "note": "(stereo not drawn)", "Potency": "inconclusive [inhibitor, single point]"}
{"smiles": "CC(=O)c1c(C)[nH]c(C(=O)OCn2nnc3ccccc3c2=O)c1C", "Potency": "inconclusive [inhibitor, full curve, poor fit]"}
{"smiles": "Fc1ccc2nc(Nc3ccccc3)sc2c1", "Potency": "inconclusive [inhibitor, single point]"}
{"smiles": "CCCc1cc(=O)oc2c(C)c(OCC(=O)NC3CCN(Cc4ccccc4)CC3)ccc12", "Potency": "active: 6.31 µM"}
{"smiles": "CC1=C(C(=O)OCc2ccccc2)C(c2cccc([N+](=O)[O-])c2)NC(=O)N1CCCCCC(=O)O", "note": "(stereo not drawn)", "activity change, negative = inhibition": "inactive: -11.2% [at 8.37 µM]"}
{"smiles": "CCCC(C(=O)NCCC(C)C)N(Cc1ccc(F)cc1)C(=O)c1snc(C(N)=O)c1N", "note": "(stereo not drawn)", "Potency": "inconclusive [inhibitor, single point]"}
{"smiles": "CC(CCc1ccccc1)NC(=O)CSc1nnnn1C", "note": "(stereo not drawn)", "activity change, negative = inhibition": "inactive: 21.1%"}
{"smiles": "CC(C)C[C@H](NC(=O)c1[nH]cnc1C(=O)N[C@@H](Cc1ccccc1)C(=O)OC(C)(C)C)C(=O)OC(C)(C)C", "Potency": "inconclusive [inhibitor, single point]"}
{"smiles": "O=C(COc1ccc(Br)cc1CNCCCN1CCOCC1)Nc1ccccc1", "Potency": "inconclusive [inhibitor, single point]"}
{"smiles": "Nc1ncnc2c1ncn2[C@@H]1O[C@H](CO)[C@@H](O)[C@H]1O", "Potency": "inconclusive [inhibitor, partial curve]"}
{"smiles": "O=C(NNC(=O)c1ccccc1OCc1ccc(F)cc1)c1ccccc1O", "Potency": "active: 6.31 µM"}
{"smiles": "COc1cccc(Nc2nc3ccccc3n2C(C)C)c1", "Potency": "inconclusive [inhibitor, partial curve, poor fit]"}
{"smiles": "Cc1ccc2c(C(=O)CN3CCCC(C)C3)c(C)[nH]c2c1", "note": "(stereo not drawn)", "Potency": "inconclusive [inhibitor, single point]"}
{"smiles": "O=C(C1=C[C@H](c2csc3ccccc23)C[C@H](OCc2ccc(CO)cc2)O1)N1CCN(Cc2ccc3c(c2)OCO3)CC1", "Potency": "active: 8.91 µM"}
{"smiles": "N=c1c2c3c(sc2ncn1CCCN1CCOCC1)CCCCC3", "Potency": "inconclusive [inhibitor, partial curve]"}
{"smiles": "Cc1ccccc1CN1CCC(C(=O)Nc2ccc(Oc3cccnc3)cc2)CC1", "Potency": "inconclusive [inhibitor, single point]"}
{"smiles": "Cc1ccc(CN2C(=O)CSc3ccc(C(=O)NC4CC4)cc32)cc1", "Potency": "inconclusive [inhibitor, single point]"}
{"smiles": "Cc1cc(C)cc(NC(=O)c2ccc([N+](=O)[O-])o2)c1", "Potency": "inconclusive [inhibitor, single point]"}
{"smiles": "Cc1ccc(C(=O)c2c3ccc(N)cc3nn2CCC(N)=O)cc1", "activity change, negative = inhibition": "inactive: 10.6% [at 8.37 µM]"}
{"smiles": "O=C(Nc1ccc(Oc2ccc3ccccc3c2)cc1)c1ccco1", "Potency": "inconclusive [inhibitor, single point]"}
{"smiles": "COc1cc(SC)ccc1C(=O)Nc1cc(C)ccn1", "Potency": "inconclusive [inhibitor, single point]"}
{"smiles": "Cc1nccn1S(=O)(=O)c1ccc(Br)cc1Br", "Potency": "inconclusive [inhibitor, single point]"}
{"smiles": "CSc1cccc(NC(=S)N2CCC(N(C)C(C)C)CC2)c1", "activity change, negative = inhibition": "inactive: 0.293%"}
{"smiles": "Cc1ccc(NC(=O)CN(C)C(=O)CCSc2ccc(F)cc2)cc1", "Potency": "inconclusive [inhibitor, partial curve]"}
{"smiles": "Oc1[nH]c2ccc(Br)cc2c1N=NC(=S)NCC1CCCO1", "note": "(stereo not drawn)", "Potency": "active: 11.2 µM"}
{"smiles": "Cc1csc2c(N3CCN(C(=S)Nc4ccc(F)cc4F)CC3)ncnc12", "Potency": "inconclusive [inhibitor, single point]"}
{"smiles": "CC(C)N(C(=O)COC(=O)c1ccc([N+](=O)[O-])cc1)c1ccccc1", "activity change, negative = inhibition": "inactive: 5.53%"}
{"smiles": "CCC(CC)C(=O)Nc1nnc(S(=O)(=O)N2CCCC2)s1", "activity change, negative = inhibition": "inactive: 13.3%"}
{"smiles": "CCCCNC(=O)C(=O)Nc1cc2c3c(c1)CCC(=O)N3CCC2", "activity change, negative = inhibition": "inactive: 13.4%"}
{"smiles": "CCCCCCOC(=O)/C=C/c1c(C)[nH]c(=O)[nH]c1=O", "activity change, negative = inhibition": "inactive: 8.52%"}
{"smiles": "COCCCn1c(=O)c2sccc2n2c(CCCC(=O)N3CCN(c4ccccn4)CC3)nnc12", "activity change, negative = inhibition": "inactive: -2.07%"}
{"smiles": "CC(C)C(=O)Nc1cccc(NC(=O)c2cc3ccccc3o2)c1", "Potency": "inconclusive [inhibitor, partial curve, poor fit]"}
{"smiles": "COC(=O)c1cc(S(=O)(=O)NCC2CCN(CCc3cccs3)CC2)cn1C", "Potency": "inconclusive [inhibitor, single point]"}
{"smiles": "CC(C)n1nc(C(=O)Nc2ccccc2N2CCOCC2)c2ccccc2c1=O", "Potency": "inconclusive [inhibitor, full curve]"}
{"smiles": "CCOc1ccccc1CNc1ccc(O)cc1", "activity change, negative = inhibition": "inactive: 9.63%"}
{"smiles": "O=C(Nc1cccc(Cl)c1)N1CCc2ccccc2C1", "Potency": "inconclusive [inhibitor, single point]"}
{"smiles": "COC(=O)C(C)n1cnc2c(nnn2-c2ccccc2)c1=O", "note": "(stereo not drawn)", "activity change, negative = inhibition": "inactive: 5.19%"}
{"smiles": "CCOC(=O)c1c(C)n(Cc2ccccc2)c2ccc(OCC(O)Cn3nc(C)cc3C)cc12", "note": "(stereo not drawn)", "Potency": "inconclusive [inhibitor, partial curve]"}
{"smiles": "Cc1nc2[nH]c(=S)[nH]c2c(=O)[nH]1", "activity change, negative = inhibition": "inactive: 19.4%"}
{"smiles": "Cc1ccc(C)c(OCc2nnc(N)s2)c1", "Potency": "inconclusive [inhibitor, single point]"}
{"smiles": "O=C(NNc1nc2ccc(F)cc2s1)c1cccc(F)c1", "Potency": "inconclusive [inhibitor, single point]"}
{"smiles": "COc1ccc(-c2cn(Cc3ccc(C(N)=O)cc3)c(-c3ccc(Cl)nc3)n2)cc1", "activity change, negative = inhibition": "inactive: 11.1%"}
{"smiles": "O=C(Nc1nnc(-c2ccco2)o1)c1ccc([N+](=O)[O-])s1", "Potency": "active: 8.91 µM"}
{"smiles": "CCOCC(=O)Nc1nnc(Cc2ccc(OC)cc2)s1", "Potency": "inconclusive [inhibitor, single point]"}
